Reference: ChEMBL document CHEMBL1201862, “PubChem BioAssay data set” (2004)
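Test compounds were applied to cells in 96-well plates for 48 hours at 5 doses. At the GI50, growth is halved.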 Activity calls are given as the source filed them. Cut-off read from the data, not from the text of the source: active = GI50 up to about 1.1 µM and inactive = higher.

test system: NCI-H322M; test: growth of human tumour cells (NCI), 48 h

SMILES | GI50
N=C(N)SCCC(=O)CCSC(=N)N | inactive: > 100 µM
CCCCCCCCCCCCCCCCCCNc1nc(=O)n(C2CC(O)C(COP(=O)(O)O)O2)cc1F (stereo not given) | inactive: > 100 µM
CCc1ccccc1NC(=O)CCc1nnc(S)[nH]1 | inactive: > 100 µM
CCOC(=O)C1=CN2C(=N[C@H]3CCCC[C@@H]32)NC1=O | inactive: > 100 µM
CCCCCCOC(=O)C(N)Cc1ccc(OC)cc1 (stereo not given) | inactive: > 100 µM
N#Cc1c2ccc([N+](=O)[O-])cc2c(=O)n2c1[nH]c1ccc(C(F)(F)F)cc12 | inactive: 10.2 µM
COc1ccc(S(=O)(=O)Nc2ccc(-c3csc(N4C(=O)/C(=C/C=C\c5ccccc5)N=C4c4ccccc4)n3)cc2)cc1Cl | inactive: 41 µM
COCOc1cc(OC)ccc1C/C(=N/O)C(=O)OC | inactive: > 100 µM
COC(=O)c1ccc(CS(=O)(=O)c2ccccc2)cc1 | inactive: > 100 µM
O=C1CNc2cc(N3CCN(c4cccc(C(F)(F)F)c4)CC3)ccc2N1 | inactive: > 100 µM
CCOC(=O)c1nc2cc(C(F)(F)F)ccc2nc1Oc1ccc(C#N)cc1 | inactive: 34.3 µM
Nc1c(C(=O)c2ccc(Cl)c(Cl)c2)[nH]c(NCc2ccccc2)c1C(=S)Nc1ccccc1 | inactive: 5.15 µM
C1CN2CCN3CCN4CCN1[PH]243 | inactive: > 100 µM
CCCCCCCCCCCCCC(=O)OCC1OC(OC)C(NC(=O)N(CCCl)N=O)C(O)C1O (stereo not given) | inactive: 21.3 µM
COc1cc(/C=C2/SC(c3ccccc3)N(c3ccc(Cl)cc3)C2=O)cc(OC)c1OC (stereo not given) | inactive: 98.4 µM
Cc1ccc2c(c1)C(=O)/C(=C1/CCc3ccc(C)cc31)C2 | inactive: > 100 µM
Clc1ccc(C2c3ccccc3-c3nc4ccccc4n32)cc1 (stereo not given) | inactive: 22.8 µM
O=CC(O)C(O)C(O)C1CNC(=S)O1 (stereo not given) | inactive: > 100 µM
CC(C)(C)C1=C(Br)C(C(C)(C)C)OP1(=O)O (stereo not given) | inactive: > 100 µM
COc1ccc2c(c1)CC1Cc3cc(OC)c(OC)cc3CN1CC2 (stereo not given) | inactive: 38.6 µM
NCCCSCC(=O)O | inactive: > 100 µM
CCN(CC)CCC(=O)c1ccccc1 | inactive: > 100 µM
N#CC1(c2ccccc2)CCN(C2(c3ccccc3)CCCCC2)CC1 | inactive: > 100 µM

SMILES | GI50
CN1CCN(c2cc(-c3cc4ccccc4o3)oc(=O)c2C#N)CC1 | inactive: > 100 µM
CC1OC(OC2C(O)COC(OC3C(C)OC(OC4C(OC(=O)[C@]56CCC(C)(C)C[C@@H]5C5=CCC7[C@@]8(C)C[C@H](O)[C@H](OC9OC(CO)C(O)C(OC%10OC(CO)C(O)C(O)C%10O)C9O)[C@@](C)(CO)[C@@H]8CC[C@@]7(C)[C@]5(C)CC6)OCC(O)C4O)C(O)C3OC3OCC(O)(CO)C3O)C2O)C(O)C(O)C1O (stereo not given in full) | inactive: 6.92 µM
COc1ccc2cc(/C=N\NC(=O)Nc3ccc([N+](=O)[O-])cc3)ccc2c1 | inactive: 16 µM
c1ccc2c(-c3cnc(-c4c[nH]c5ccccc45)cn3)c[nH]c2c1 | inactive: 41.7 µM
CC(=O)OC1C(COC(N)=O)OC(n2c(-c3ccc(C)cc3)cc(-c3ccccc3)c(C#N)c2=O)C(OC(C)=O)C1OC(C)=O (stereo not given) | inactive: > 100 µM
Nc1nc(Cl)c(N)c(NCC2(CO)CCC(CCc3ccccc3)C2)n1 (stereo not given) | inactive: 15.7 µM
CC(=O)OCC(=O)O[C@@H]1[C@H]2[C@@H](OC(=O)c3ccccc3)[C@@H](C)C[C@]2(O)[C@H](OC(C)=O)[C@@]2(C)C[C@]1(OC(C)=O)C[C@H]1C(=O)C(C)(C)[C@@H](OC(C)=O)[C@@H]12 | inactive: > 25 µM
O=C1C(=Cc2ccc([N+](=O)[O-])o2)C(=O)N(CCc2ccccc2)S(=O)(=O)N1CCc1ccccc1 | inactive: > 100 µM
O=[N+]([O-])c1cccc(/C=N/NC2=CS(=O)(=O)C=C2)c1 | inactive: > 100 µM
NC(=O)N/N=C1\C[C@H]2CCCC[C@H]2C1 | inactive: > 100 µM
Cc1cc(C2(c3cc(C)c(O)c(C(=O)O)c3)OS(=O)(=O)c3ccccc32)cc(C(=O)O)c1O | inactive: > 100 µM
CC(=O)Nc1ccc(/N=N\c2c(O)c(S(=O)(=O)O)cc3cc(S(=O)(=O)O)ccc23)cc1 | inactive: > 100 µM
O=S(=O)(O)c1cc(S(=O)(=O)O)c2c(/N=N/c3ccccc3)c(O)ccc2c1 | inactive: > 100 µM
CCCCCCC(O)C/C=C/CCCCCC/C(C(=O)OC)=C(/O)C(=O)OCC (stereo not given) | inactive: > 100 µM
CCC12C=CCN3CCC4(C(=C(C(=O)OC)[C@@H]1O)Nc1ccccc14)C32 (stereo not given in full) | inactive: 2.58 µM
C/N=C(\S)N/N=C/C(C)=N/N/C(S)=N/C | active: 0.278 µM
O=[N+]([O-])c1cccc(Cl)c1Oc1ccc(S(=O)(=O)N/C(=N\O)Nc2ccc(Cl)cc2)cc1 | inactive: 12.3 µM
COc1cccc(/C=C\c2cc(OC)c(OC)c(OC)c2)c1 | inactive: 1.68 µM
CC#C[I+]c1ccccc1 | inactive: 54.7 µM
Clc1n[nH]c2ccccc12 | inactive: > 100 µM
CCCCCCCCCCCCCCCC(=O)Nc1ccn(C2OC(CO)C(O)C2O)c(=O)n1 (stereo not given) | inactive: 36.2 µM
COc1ccc(-c2cc(=O)c3c(OC)c(OC)c(OC)cc3o2)cc1 | inactive: 33.3 µM
